# Among all 310,000 compounds or so, about 14,000 (4.5%) showed an effect of 50% or more. Effects have a minus sign here. Some of the results follow.
# Target: human ether-à-go-go-related gene (hERG) potassium channel (human, UniProt Q12809)
# Experiment: primary screen, population patch clamp on CHO cells stably expressing hERG
# 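Further: peak tail current of the secondary pulse compared with the same well before compound.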
# Sequence of human ether-à-go-go-related gene (hERG) potassium channel (Q12809 whole entry, looked up): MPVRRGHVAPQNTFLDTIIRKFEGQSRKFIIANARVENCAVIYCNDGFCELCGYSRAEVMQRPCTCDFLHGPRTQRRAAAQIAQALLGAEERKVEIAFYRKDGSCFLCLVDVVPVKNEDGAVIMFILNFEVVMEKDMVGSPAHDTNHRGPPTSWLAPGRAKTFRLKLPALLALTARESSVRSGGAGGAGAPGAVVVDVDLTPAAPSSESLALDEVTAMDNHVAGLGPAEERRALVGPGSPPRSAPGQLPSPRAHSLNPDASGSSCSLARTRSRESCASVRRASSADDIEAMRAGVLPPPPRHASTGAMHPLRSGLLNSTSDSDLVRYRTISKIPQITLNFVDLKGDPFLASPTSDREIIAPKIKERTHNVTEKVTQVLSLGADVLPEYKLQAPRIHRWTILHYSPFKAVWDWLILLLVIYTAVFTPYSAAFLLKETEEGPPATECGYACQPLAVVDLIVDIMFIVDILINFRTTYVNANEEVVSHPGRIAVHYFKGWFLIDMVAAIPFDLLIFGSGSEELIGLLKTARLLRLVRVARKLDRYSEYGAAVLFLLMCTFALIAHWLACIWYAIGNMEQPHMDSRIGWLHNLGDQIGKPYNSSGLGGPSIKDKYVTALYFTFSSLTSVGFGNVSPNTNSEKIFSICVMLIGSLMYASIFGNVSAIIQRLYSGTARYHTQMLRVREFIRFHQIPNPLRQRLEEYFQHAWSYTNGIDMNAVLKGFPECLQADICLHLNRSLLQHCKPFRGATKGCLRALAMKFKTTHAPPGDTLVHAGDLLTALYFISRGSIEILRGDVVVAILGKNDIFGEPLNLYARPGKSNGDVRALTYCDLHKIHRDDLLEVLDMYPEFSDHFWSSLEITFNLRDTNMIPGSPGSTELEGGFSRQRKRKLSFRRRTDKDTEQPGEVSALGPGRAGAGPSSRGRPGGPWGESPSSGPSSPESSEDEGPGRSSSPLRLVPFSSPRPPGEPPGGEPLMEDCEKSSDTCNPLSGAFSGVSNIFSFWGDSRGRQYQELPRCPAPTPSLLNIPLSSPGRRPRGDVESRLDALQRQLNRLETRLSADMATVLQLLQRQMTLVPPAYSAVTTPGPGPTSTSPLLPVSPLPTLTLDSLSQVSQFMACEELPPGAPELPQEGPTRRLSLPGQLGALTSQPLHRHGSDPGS
row,SMILES,"hERG current change (%, negative = inhibition) at 10uM [%]"
1,Cc1cc2nc(-c3ccc(NC(=O)c4cccnc4)cc3)oc2cc1C,12
2,CCC1CCCCN1CCCNC(=O)c1cn(CC)c2ccc(S(=O)(=O)N(C)C3CCCCC3)cc2c1=O (stereo not drawn),-79.8
3,CCNc1nc(NC(C)C)nc(N2CC(=O)N(CC(=O)OCC)C2=N)n1,-13.9
4,CCOc1cc(/C=C(/C#N)c2nc3ccccc3[nH]2)ccc1Oc1ccc([N+](=O)[O-])cn1,8.7
5,Cc1cccc(NC(=O)Nc2ccc(F)cc2)n1,19
6,COCCn1cnc2c(c1=O)c1nc3ccccc3nc1n2/N=C/c1cccc(OC)c1,-16.8
7,CC1=NN(c2ccc(C(=O)OC(C)C)cc2)C(=O)/C1=C\C=C\c1ccco1,5.53
8,Cn1nnnc1SCC(=O)Nc1cc(C(=O)O)cc(C(=O)O)c1,-5.93
9,CCc1cccc(NC(=O)CN(C)S(=O)(=O)c2cnc[nH]2)c1,19.5
10,CCCCCCOC(=O)C(C#N)c1nc2ccccc2nc1N1CCOCC1 (stereo not drawn),1.23
11,CCOC(=O)N1CCC(N(CCOC)C(=O)Nc2ccc(Cl)c(Cl)c2)CC1,-33.4
12,COc1ccc(OCC(O)Cn2c(Br)nc3c2c(=O)[nH]c(=O)n3C)cc1 (stereo not drawn),-12.6
13,COc1ccc(CCNC(=O)c2cc(S(=O)(=O)N(C)c3ccccc3)ccc2Cl)cc1,-16.6
14,Cc1cc2c(n1-c1ccc(C(=O)O)cc1)CCCCC2,7.7
15,Cc1cc2cc(CCNS(C)(=O)=O)c(=O)[nH]c2cc1C,12.6
16,COc1ccc(NC(=O)CSc2nc3sc(C)cc3c(=O)n2C)c(OC)c1,-24.9
17,CCOC(=O)c1nn(-c2c(C)n(C)n(-c3ccccc3)c2=O)cc1O,16.6
18,CCOC(=O)N1CCN(S(=O)(=O)c2ccc(NC(C)=O)cc2)CC1,18.8
19,CCOc1cc2c(cc1OCC)CN(CC(=O)Nc1ccccc1C(=O)NC1CC1)CC2,-31.4
20,O=C(Nc1nnc(C2CC2)o1)c1ccc(S(=O)(=O)N2CCCc3ccccc32)cc1,-19.3
21,CCOC(=O)c1c(NC(=O)C2CCCO2)sc(C(=O)OC(C)(C)C)c1C (stereo not drawn),9.29
22,Cc1ccc2c(c1)CCCN2C(=O)c1cc2ccccc2oc1=O,-3.07
23,O=Cc1ccc(OCC(=O)N2CCOCC2)cc1,11.4
24,COc1cc(/C(C)=N/NC(=O)c2nnn(-c3nonc3N)c2-c2cccs2)ccc1O,16.4
